# Test results published in PubChem BioAssay (Tox21).
# Several values for one entry are separate records, joined by “and”; a condition that tells them apart may be missing. Equal values may be shown once. The shares of active, inactive and inconclusive entries below differ from those in the screen. For some assays here: A potency beside an inconclusive call is a rough fit, not a confirmed value. Activity calls are given as the source filed them. Unless noted, calls come from the whole dose curve; as a rule, active = well fitted curve in the direction sought with a large enough effect in the repeat runs; inconclusive = weak or mixed curves; inactive = no such curve, though single readings can be large; an effect the other way counts as inactive or inconclusive.
# Tests used:
# [1] = A CellTox Green Cytotoxicity Assay to monitor cytotoxicity in HepG2 cells - 16 hour (AID 1224876); note: nearly all actives have a fitted effect of over 45% in size; note: potency is the fitted concentration of half-maximal effect
# Procedure, shortened: (§1)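 HepG2 cells, 600/well, preincubated 5 h with CellTox Green dye, then exposed to Tox21 compounds in DMSO at 37 C for up to 40 h. Dead-cell DNA fluorescence read at the indicated time point.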
# [2] = A CellTox Green Cytotoxicity Assay to monitor cytotoxicity in HepG2 cells - 24 hour (AID 1224878); note: nearly all actives have a fitted effect of over 45% in size; note: potency is the fitted concentration of half-maximal effect
# Procedure, shortened: as §1
# [3] = molecular target: Androgen receptor (Homo sapiens) (UniProt P10275); assay: qHTS assay to identify small molecule antagonists of the androgen receptor (AR) signaling pathway (AID 743035; active = well fitted inhibition curve with a large enough effect in the signal ratio in the repeat runs, not every such curve was filed as active; inconclusive = weak or mixed curves, or effect the other way; inactive = no such curve, though single readings can be large or run the other way; the % refers to the signal ratio; note: potency is the fitted concentration of half-maximal effect); details: HEK293 AR-UAS-bla, R1881-stimulated, beta-lactamase FRET, 16 h; activity change, negative = inhibition: at 58.5 µM (top of the series) unless noted
# Procedure, shortened: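 HEK293 cells stably carrying UAS-beta-lactamase reporter, 2,000/well, given compounds plus R1881 agonist and incubated 16 h at 37C. LiveBLAzer B/G FRET substrate then added for 2 h at room temperature before fluorescence reading.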
# [4] = molecular target: Progesterone receptor (Homo sapiens) (UniProt P06401); assay: qHTS assay to identify small molecule agonists of the progesterone receptor (PR) signaling pathway (AID 1346784; calls by dose curve; note: nearly all actives have a fitted effect of over 30% in size; note: potency is the fitted concentration of half-maximal effect; for activation: % is set by controls: 0 for no effect and ±100 for the full control effect); details: PR-UAS-bla HEK293T, beta-lactamase FRET ratio, 16 h; activation: at 92.4 µM (top of the series) unless noted
# Procedure, shortened: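 Using charcoal-stripped serum (2%) to limit endogenous steroids, PR-UAS-bla HEK 293T cells received compounds for 16 hr at 37C after 6 hr plating; beta-lactamase FRET fluorescence was recorded following 2 hr substrate loading at room temperature.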
# [5] = molecular target: Luciferin 4-monooxygenase (Photinus pyralis) (UniProt P08659); assay: qHTS assay to identify small molecule inhibitors of firefly luciferase (AID 1224835); note: nearly all actives have a fitted effect of over 25% in size; note: potency is the fitted concentration of half-maximal effect
# Procedure, shortened: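 Quantitative HTS format; KM concentrations of both substrates. Purified P. pyralis FLuc activity quantified from luminescence images.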
# [6] = qHTS assay to identify small molecule agonists of the TGF-beta/Smad signaling pathway (AID 1346859; active = well fitted activation curve with a large enough effect in the signal ratio in the repeat runs, not every such curve was filed as active; inconclusive = weak or mixed curves; the % refers to the signal ratio; note: % is set by controls: 0 for no effect and ±100 for the full control effect)
# Procedure, shortened: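 Stable Smad binding element-beta-lactamase HEK 293T cells; 5 hr compound exposure at 37 C under 5% CO2; 2 hr room-temperature substrate step; fluorescence excited at 405 nm, collected at 460 nm and 530 nm.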
# [7] = qHTS assay to identify small molecule antagonists of the estrogen related receptor signaling pathway with the pleiotropic PPARgamma coactivator (PGC) from Tox21 10K library - cell viability counter screen (AID 1224840; active = well fitted cell-killing curve with a large enough effect in the repeat runs, not every such curve was filed as active; inconclusive = weak or mixed curves, or effect the other way; inactive = no such curve, though single readings can be large or run the other way; note: potency is the fitted concentration of half-maximal effect; nearly all actives have a fitted effect of over 40% in size)
# Procedure, shortened: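 PGC/ERR cells (2,000/well) plated 6 h, then compound-treated for 17.5 h at 37 C. Viability measured by CellTiter-Fluor fluorescence after 30 min at 37 C, multiplexed with the pathway assay.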
# [8] = qHTS RealTime-Glo MT Cell Viability Assay in HEK293 cells - 40 hour (AID 1224874); details: RealTime-Glo luminescence; max response: stronger effect = lower value; note: potency is the fitted concentration of half-maximal effect; nearly all actives have a fitted effect of over 50% in size
# Procedure, shortened: (§2)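 600 cells/well were plated with the nonlytic NanoLuc/prosubstrate reagent, pre-incubated 5 h, then given 23 nL of compound in DMSO. Incubation at 37 C for 40 h, with luminescence from viable-cell-reduced substrate read repeatedly from 0 h.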
# [9] = qHTS assay to identify small molecule agonists of the androgen receptor (AR) signaling pathway in the presence of an antagonist - cell viability counter screen (AID 1259379); note: potency is the fitted concentration of half-maximal effect; nearly all actives have a fitted effect of over 25% in size
# Procedure, shortened: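 MDA-kb2 cells (MMTV-luciferase, AR/GR), 3,000/well, 5 h attachment, then 3.0 µM nilutamide (final) and compounds at 15 concentrations. Viability by CellTiter-Fluor fluorescence after 16 h at 37 °C, 0% CO2, in the reporter wells.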
# [10] = qHTS assay to identify small molecule agonists of the vitamin D receptor (VDR) signaling pathway - cell viability counter screen (AID 743224); note: nearly all actives have a fitted effect of over 50% in size; note: potency is the fitted concentration of half-maximal effect
# Procedure, shortened: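 VDR-bla cells, 4 h after plating, exposed to compounds for 16 h at 37C; viability then read in the same wells as CellTiter-Glo luminescence after 30 min at room temperature, following the bla FRET read.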
# [11] = molecular target: Estrogen receptor (Homo sapiens) (UniProt P03372); assay: qHTS assay to identify small molecule agonists of the estrogen receptor alpha (ER-alpha) signaling pathway (AID 743075; calls by dose curve;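 note: HEK293 GripTite cells with ER-alpha and UAS-driven beta-lactamase reporter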; note: potency is the fitted concentration of half-maximal effect; for activation: % is set by controls: 0 for no effect and ±100 for the full control effect); details: HEK293 ER-alpha-UAS-bla, beta-lactamase FRET ratio, 18 h; activation: at 70.1 µM (top of the series) unless noted
# [12] = qHTS assay to identify aromatase inhibitors - cell viability counter screen (AID 743084); details: MCF-7 aro ERE viability, CellTiter-Fluor, 24 h; activity change, negative = cytotoxicity: at 70.3 µM (top of the series);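 note: cells stimulated with testosterone during compound exposure; nearly all actives have a fitted effect of over 55% in size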; note: potency is the fitted concentration of half-maximal effect
# [13] = qHTS assay to identify small molecule antagonists of the thyroid receptor (TR) signaling pathway (AID 743065); note: % is set by controls: 0 for no effect and ±100 for the full control effect; nearly all actives have a fitted effect of over 55% in size
# Procedure, shortened: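 GH3.TRE-Luc rat pituitary cells carrying two TR response elements driving luciferase were plated for 4 h, given compound plus 1 nM T3 (final), and incubated 23.5 h at 37 C. ONE-Glo luminescence measured reporter inhibition; CellTiter-Fluor fluorescence tracked cytotoxicity.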
# [14] = system: thyroid hormone receptor (rat, GH3 cells); assay: qHTS assay to identify small molecule agonists of the thyroid receptor (TR) signaling pathway (AID 743066; calls by dose curve; note: potency is the fitted concentration of half-maximal effect); details: GH3.TRE-Luc cells, TR agonist luciferase, 24 h; activation: at 83.9 µM (top of the series) unless noted
# [15] = molecular target: Peroxisome proliferator-activated receptor delta (Homo sapiens) (UniProt Q03181); assay: qHTS assay to identify small molecule agonists of the peroxisome proliferator-activated receptor delta (PPARd) signaling pathway (AID 743212; calls by dose curve; note: % is set by controls: 0 for no effect and ±100 for the full control effect); details: HEK293H PPARd-UAS-bla, beta-lactamase FRET ratio, 17 h; activation: at 62.6 µM (top of the series) unless noted
# Procedure, shortened: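 GeneBLAzer PPARd UAS-bla HEK293H cells (beta-lactamase reporter under UAS control), plated and rested 5 h at 37 C, then exposed to compounds in DMSO at 37 C; LiveBLAzer B/G FRET substrate added, 2 h room temperature, fluorescence read.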
# [16] = molecular target: Nuclear receptor subfamily 1 group I member 3 (Homo sapiens) (UniProt Q14994); assay: qHTS assay to identify small molecule antagonists of the constitutive androstane receptor (CAR) signaling pathway (AID 1224838); note: nearly all actives have a fitted effect of over 40% in size; note: potency is the fitted concentration of half-maximal effect
# Procedure, shortened: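 HepG2 cells stably carrying hCAR and a CYP2B6-2.2kb luciferase reporter, seeded 4 hrs before compound (15 concentrations). Stimulated with 50 nM CITCO for 24 hr at 37 C. ONE-Glo luminescence read after 30 min at room temperature.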
# [17] = qHTS assay to identify small molecule agonists of the estrogen receptor alpha (ER-alpha) signaling pathway in the presence of an antagonist - cell viability counter screen (AID 1259386);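 note: cells exposed to compounds for 22 h at 37 °C before the viability read; nearly all actives have a fitted effect of over 30% in size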; note: potency is the fitted concentration of half-maximal effect
# Procedure, shortened: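 Cell viability in VM7Luc4E2 cells (endogenous full-length ER-alpha) measured by CellTiter-Fluor fluorescence in the same wells as the luciferase screen. Cells pre-cultured 5 days in charcoal-stripped serum, then treated 22 h with compounds at 15 concentrations plus 10.0nM ICI-182,780.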
# [18] = molecular target: Acetylcholinesterase (Homo sapiens) (UniProt P22303); assay: Acetylcholinesterase (AChE) small molecule antagonists: colormetric cell-based qHTS assay (AID 1347395; calls by dose curve; note: potency is the fitted concentration of half-maximal effect; nearly all actives have a fitted effect of over 30% in size)
# Procedure, shortened: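 Neuroblastoma line SH-SY5Y supplied the enzyme; cells were preincubated with compound for 30 min at 37 C and 5% CO2. Acetylthiocholine with DTNB was then added for 90 min at 37 C, and thiocholine was measured by colour.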
# [19] = qHTS RealTime-Glo MT Cell Viability Assay in HEK293 cells - 8 hour (AID 1224887); note: top concentration of the series differs between compounds; % is set by controls: 0 for no effect and ±100 for the full control effect; nearly all actives have a fitted effect of over 50% in size
# Procedure, shortened: as §2
# Tags give direction and shape of the fitted curve or compound fluorescence and quenching.
# UniProt Q03181, sequence (Q03181 whole entry, looked up): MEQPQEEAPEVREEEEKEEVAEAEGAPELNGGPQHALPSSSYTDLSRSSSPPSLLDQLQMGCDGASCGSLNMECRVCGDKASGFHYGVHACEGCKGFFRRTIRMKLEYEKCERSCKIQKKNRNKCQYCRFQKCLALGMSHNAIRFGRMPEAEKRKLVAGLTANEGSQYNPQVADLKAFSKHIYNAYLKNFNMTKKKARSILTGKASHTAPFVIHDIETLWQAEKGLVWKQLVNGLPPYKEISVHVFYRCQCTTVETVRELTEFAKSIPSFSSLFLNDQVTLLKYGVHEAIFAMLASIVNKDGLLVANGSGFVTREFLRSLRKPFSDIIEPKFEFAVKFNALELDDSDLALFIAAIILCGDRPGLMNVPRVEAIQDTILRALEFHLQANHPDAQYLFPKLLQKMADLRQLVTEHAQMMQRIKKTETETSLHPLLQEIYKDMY
# UniProt P06401, sequence (P06401 whole entry, looked up): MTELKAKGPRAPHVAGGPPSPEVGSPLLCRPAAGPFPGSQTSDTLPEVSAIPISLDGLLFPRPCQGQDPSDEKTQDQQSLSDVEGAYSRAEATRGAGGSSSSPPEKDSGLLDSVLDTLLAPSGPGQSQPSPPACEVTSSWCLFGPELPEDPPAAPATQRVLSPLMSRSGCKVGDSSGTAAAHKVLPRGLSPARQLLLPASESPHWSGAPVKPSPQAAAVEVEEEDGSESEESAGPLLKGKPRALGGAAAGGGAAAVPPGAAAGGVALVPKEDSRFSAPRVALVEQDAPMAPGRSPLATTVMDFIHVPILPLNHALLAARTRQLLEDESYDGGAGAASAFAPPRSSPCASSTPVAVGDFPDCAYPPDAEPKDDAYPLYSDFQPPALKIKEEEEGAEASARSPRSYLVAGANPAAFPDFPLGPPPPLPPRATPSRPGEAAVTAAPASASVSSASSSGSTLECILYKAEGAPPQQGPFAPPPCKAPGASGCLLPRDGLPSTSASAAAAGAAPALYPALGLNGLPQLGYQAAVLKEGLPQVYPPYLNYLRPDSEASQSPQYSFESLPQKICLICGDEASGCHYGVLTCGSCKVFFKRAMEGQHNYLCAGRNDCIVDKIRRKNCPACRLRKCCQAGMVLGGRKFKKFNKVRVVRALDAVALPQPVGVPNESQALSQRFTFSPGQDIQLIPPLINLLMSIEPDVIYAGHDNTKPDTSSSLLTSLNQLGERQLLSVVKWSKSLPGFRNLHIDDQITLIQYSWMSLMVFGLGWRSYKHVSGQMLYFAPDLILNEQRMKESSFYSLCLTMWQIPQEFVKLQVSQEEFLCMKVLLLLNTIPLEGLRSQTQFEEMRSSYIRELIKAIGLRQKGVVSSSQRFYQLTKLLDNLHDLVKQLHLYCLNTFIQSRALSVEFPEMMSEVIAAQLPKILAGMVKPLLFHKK
# UniProt P22303, sequence (P22303 whole entry, looked up): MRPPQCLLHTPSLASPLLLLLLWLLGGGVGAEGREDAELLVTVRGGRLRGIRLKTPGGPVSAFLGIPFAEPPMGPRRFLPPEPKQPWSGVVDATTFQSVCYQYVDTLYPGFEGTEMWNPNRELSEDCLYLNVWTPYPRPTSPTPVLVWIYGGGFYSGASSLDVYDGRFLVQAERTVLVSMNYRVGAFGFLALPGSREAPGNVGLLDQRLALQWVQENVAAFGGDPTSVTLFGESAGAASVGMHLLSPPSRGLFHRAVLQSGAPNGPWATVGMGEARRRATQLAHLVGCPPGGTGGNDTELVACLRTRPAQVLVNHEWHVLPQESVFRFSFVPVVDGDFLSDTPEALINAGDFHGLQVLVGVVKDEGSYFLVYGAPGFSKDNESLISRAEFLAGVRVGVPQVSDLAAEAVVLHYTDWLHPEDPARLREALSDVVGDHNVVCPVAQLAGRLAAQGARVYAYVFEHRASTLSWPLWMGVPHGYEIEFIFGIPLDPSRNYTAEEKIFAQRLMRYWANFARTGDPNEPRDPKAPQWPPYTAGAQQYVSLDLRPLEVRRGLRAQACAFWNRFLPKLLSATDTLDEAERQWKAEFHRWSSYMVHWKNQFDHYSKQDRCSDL
# UniProt P10275, sequence (P10275 whole entry, looked up): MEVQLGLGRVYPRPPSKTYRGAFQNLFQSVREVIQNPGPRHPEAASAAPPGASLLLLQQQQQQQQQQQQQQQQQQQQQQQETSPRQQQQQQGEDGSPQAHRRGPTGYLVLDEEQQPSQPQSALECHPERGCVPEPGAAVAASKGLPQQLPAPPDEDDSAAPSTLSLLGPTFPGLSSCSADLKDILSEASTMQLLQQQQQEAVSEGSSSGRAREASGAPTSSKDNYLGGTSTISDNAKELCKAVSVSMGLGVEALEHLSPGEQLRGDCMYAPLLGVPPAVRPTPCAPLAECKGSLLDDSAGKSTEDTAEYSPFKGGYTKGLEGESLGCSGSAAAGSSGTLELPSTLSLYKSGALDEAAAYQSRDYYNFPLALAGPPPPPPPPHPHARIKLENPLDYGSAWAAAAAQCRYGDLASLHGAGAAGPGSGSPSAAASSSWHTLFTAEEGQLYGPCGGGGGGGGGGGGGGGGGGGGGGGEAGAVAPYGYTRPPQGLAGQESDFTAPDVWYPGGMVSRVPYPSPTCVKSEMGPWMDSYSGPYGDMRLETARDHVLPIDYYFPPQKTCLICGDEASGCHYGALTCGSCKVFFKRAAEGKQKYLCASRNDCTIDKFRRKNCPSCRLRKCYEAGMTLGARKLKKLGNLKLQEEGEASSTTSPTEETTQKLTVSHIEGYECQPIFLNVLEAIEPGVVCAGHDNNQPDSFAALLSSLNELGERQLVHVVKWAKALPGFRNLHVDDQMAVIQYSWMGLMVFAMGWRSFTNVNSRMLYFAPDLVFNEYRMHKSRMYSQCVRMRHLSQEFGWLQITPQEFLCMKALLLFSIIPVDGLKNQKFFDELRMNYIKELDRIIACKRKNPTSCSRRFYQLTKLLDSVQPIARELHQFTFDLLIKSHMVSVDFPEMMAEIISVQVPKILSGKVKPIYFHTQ
# UniProt P08659, sequence (P08659 whole entry, looked up): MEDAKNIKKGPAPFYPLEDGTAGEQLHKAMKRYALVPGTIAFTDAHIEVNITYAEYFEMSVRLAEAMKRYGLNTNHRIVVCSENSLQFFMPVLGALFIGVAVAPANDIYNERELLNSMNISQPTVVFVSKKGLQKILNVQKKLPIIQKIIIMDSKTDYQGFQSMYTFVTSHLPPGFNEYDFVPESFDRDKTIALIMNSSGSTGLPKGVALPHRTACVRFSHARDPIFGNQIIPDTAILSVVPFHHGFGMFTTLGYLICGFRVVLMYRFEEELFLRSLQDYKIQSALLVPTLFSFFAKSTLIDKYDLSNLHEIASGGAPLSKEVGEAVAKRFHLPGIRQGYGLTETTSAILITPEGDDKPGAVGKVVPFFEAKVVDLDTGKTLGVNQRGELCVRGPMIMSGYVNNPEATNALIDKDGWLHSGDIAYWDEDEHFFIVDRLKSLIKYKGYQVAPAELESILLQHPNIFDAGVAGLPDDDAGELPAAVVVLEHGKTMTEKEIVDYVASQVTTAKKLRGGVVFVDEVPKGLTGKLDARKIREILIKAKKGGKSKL
# UniProt Q14994, sequence (Q14994 whole entry, looked up): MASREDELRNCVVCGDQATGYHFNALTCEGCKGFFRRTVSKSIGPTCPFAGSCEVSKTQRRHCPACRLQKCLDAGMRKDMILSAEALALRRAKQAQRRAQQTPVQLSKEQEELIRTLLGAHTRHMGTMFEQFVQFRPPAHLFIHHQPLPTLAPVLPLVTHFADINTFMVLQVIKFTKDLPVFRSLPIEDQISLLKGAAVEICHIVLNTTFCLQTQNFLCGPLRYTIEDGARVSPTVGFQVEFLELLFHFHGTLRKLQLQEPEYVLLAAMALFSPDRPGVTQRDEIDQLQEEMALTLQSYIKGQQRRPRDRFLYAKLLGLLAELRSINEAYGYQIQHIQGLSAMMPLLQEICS
# UniProt P03372, sequence (P03372 whole entry, looked up): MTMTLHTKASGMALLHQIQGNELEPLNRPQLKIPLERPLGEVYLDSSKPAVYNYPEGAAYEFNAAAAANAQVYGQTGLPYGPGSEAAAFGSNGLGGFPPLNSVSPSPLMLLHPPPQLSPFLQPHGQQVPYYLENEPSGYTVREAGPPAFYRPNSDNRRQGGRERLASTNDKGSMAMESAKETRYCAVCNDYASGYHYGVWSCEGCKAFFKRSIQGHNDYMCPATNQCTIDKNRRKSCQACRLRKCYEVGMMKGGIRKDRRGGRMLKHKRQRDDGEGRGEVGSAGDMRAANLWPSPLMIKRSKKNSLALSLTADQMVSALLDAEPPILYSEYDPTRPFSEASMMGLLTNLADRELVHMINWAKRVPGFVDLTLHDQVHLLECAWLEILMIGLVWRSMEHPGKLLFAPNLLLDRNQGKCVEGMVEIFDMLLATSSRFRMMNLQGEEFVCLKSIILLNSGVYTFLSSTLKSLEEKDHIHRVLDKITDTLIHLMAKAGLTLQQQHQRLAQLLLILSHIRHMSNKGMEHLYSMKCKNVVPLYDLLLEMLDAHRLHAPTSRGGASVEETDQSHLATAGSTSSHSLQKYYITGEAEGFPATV
smiles,measurement,setting,value
O=c1[nH]oc2c1CCNC2,Potency,[1],"inconclusive: 10.7 µM [activator, single point]"
same,Potency,[2],"inconclusive: 10.7 µM [activator, single point]"
O=C(Nc1ccccc1)c1ccccc1I,Potency,[3],"inconclusive: 49 µM [falling, partial curve]"
same,Potency,[4],inactive
CS(=O)(=O)NC(=O)c1cc(Oc2ccc(C(F)(F)F)cc2Cl)ccc1[N+](=O)[O-],Potency,[5],"inconclusive: 86.3 µM [inhibitor, partial curve, poor fit]"
Oc1ccc(I)cc1,Potency,[6],inactive
O=[N+]([O-])c1cccc2c([N+](=O)[O-])cccc12,Potency,[7],"inconclusive: 68.9 µM [cytotoxic, single point]"
same,Potency,[8],active: 49.2 µM
same,Potency,[9],"inconclusive: 68.9 µM [cytotoxic, single point]"
same,activation,[4],inconclusive: 16.7%
CCCSP(=S)(OCC)Oc1ccc(SC)cc1 (stereo not given),Potency,[10],inconclusive: 61.6 µM [cytotoxic]
CCNC(=O)NC(=O)/C(C#N)=N/OC,Potency,[11],inactive
same,Potency,[12],inactive
same,Potency,[6],inactive
CCOc1ccc(N)cc1,Potency,[13],inactive
same,activation,[14],inconclusive: 5.61% [phenotype inactive]
same,activation,[15],inconclusive: 5.95%
same,Potency,[10],"inactive and inconclusive: 4.9 µM [cytotoxic, full curve, poor fit]"
same,Potency,[16],"inconclusive: 77.1 µM [inhibitor, partial curve, poor fit]"
CNc1cnn(-c2cccc(C(F)(F)F)c2)c(=O)c1Cl,Potency,[5],active: 34.3 µM and active: 39.9 µM
same,Potency,[1],inactive
same,Potency,[17],inactive
CC(C)OC(=O)Nc1ccccc1,Potency,[5],active: 40 µM and active: 35.6 µM
same,Potency,[2],inactive
O=C=NC1CCCCC1,Potency,[10],inactive
Nc1ccc2ccccc2c1,Potency,[5],"inconclusive: 77 µM [inhibitor, partial curve]"
same,Potency,[8],"inconclusive: 123 µM [rising, partial curve, poor fit]"
CCC1COC(Cn2cncn2)(c2ccc(Cl)cc2Cl)O1 (stereo not given),Potency,[15],inactive
same,Potency,[10],inactive
same,Potency,[7],"inconclusive: 54.5 µM [cytotoxic, partial curve, poor fit]"
same,Potency,[8],"inconclusive: 24.5 µM [cytotoxic, partial curve]"
same,Potency,[6],inactive
CCOP(=S)(S)OCC,Potency,[3],inactive
same,activation,[15],inconclusive: -3.71% [at 81.1 µM]
same,Potency,[5],active: 33.4 µM
ClCOCCl,Potency,[5],inactive
O=C(N/N=C/c1ccc([N+](=O)[O-])o1)c1cc([N+](=O)[O-])cc([N+](=O)[O-])c1O,Potency,[12],"inconclusive: 26.6 µM [cytotoxic, single point]"
same,Potency,[9],active: 11.9 µM
Cc1cc(-c2cc(C)c(N)c(C)c2)cc(C)c1N,Potency,[2],"inconclusive: 21.5 µM [activator, single point]"
CCCCC(CC)C(=O)Cl (stereo not given),Potency,[14],inactive
same,Potency,[11],"inconclusive: 49 µM [activator, partial curve]"
C[N+]1(C)CCCCC1,Potency,[3],inactive
same,Potency,[14],"inconclusive: 38.1 µM [activator, partial curve]"
same,Potency,[16],"inconclusive: 34 µM [inhibitor, partial curve]"
same,Potency,[4],"inconclusive: 17 µM [rising, full curve]"
same,Potency,[6],inactive
CC[N+](CC)(CC)CC,Potency,[16],"inconclusive: 29.8 µM [inhibitor, partial curve, poor fit]"
CCOP(=S)(OCC)Oc1ccc(S(C)=O)cc1 (stereo not given),Potency,[12],inactive
same,Potency,[10],inactive
same,Potency,[6],inactive
same,Potency,[18],"inconclusive: 71 µM [inhibitor, partial curve]"
O=[N+]([O-])c1ccc2c3c(cccc13)CC2,activation,[4],inconclusive: 4.72%
O=C(N[C@H]1CN2CCC1CC2)c1ccc2c(c1)OCCO2,Potency,[17],"inconclusive: 34.4 µM [cytotoxic, partial curve, poor fit]"
same,Potency,[4],"inconclusive: 0.243 µM [falling, full curve, poor fit]"
same,Potency,[18],"inconclusive: 39.9 µM [inhibitor, partial curve]"
CC[C@@H](CO)NC(=O)[C@@H]1C=C2c3cccc4[nH]cc(c34)C[C@H]2N(C)C1,Potency,[3],inconclusive: 26.8 µM
same,Potency,[12],inactive
same,Potency,[1],inactive
same,Potency,[19],inactive
same,Potency,[6],inactive
CCCCCCCCOC(=O)c1ccc(C(=O)OCCCCCCCC)c(C(=O)OCCCCCCCC)c1,Potency,[13],inactive
same,Potency,[16],inactive
CCCN1CCC[C@@H]2Cc3nc(N)ncc3C[C@H]21,Potency,[2],active: 21.3 µM
same,Potency,[6],inactive
same,Potency,[18],"inconclusive: 3.47 µM [inhibitor, partial curve]"
